# The list shows a part of the results.
# B1: LBL-152 (Laetiporus bicolor), B0D650 (protein)
# chain: MSNEYNPPLGIAFRLCGLASDRVLFSRVSPSPEVFHHPKSEVYPDQWFVAIPGSGQNAGCYAIKSKNTGKVLFSRMSPDPRVGHIDGDGKYPDNWFKFEAGSGKYAGYFRLRAVASDTVLVSRTSTGTDTQVINYPATSAKYDDQYFTILFDHHHHHH
# Experiments:
# Assay in all cases: glycan array binding signal (z-score within array); higher = stronger binding
# Conditions in all cases: glycan notation: IUPAC condensed, linker removed
# [1] = molecular target: Gal(b1-4)GlcNAc(b1-2)[Gal(b1-4)GlcNAc(b1-6)]Man(a1-6)[Gal(b1-4)GlcNAc(b1-2)Man(a1-3)]Man(b1-4)GlcNAc(b1-4)[Fuc(a1-6)]GlcNAc
# Method in brief: (§1)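 The binding signal is a Z-score computed within each array and averaged over linkers. Arrays of the same protein sequence at different concentrations or buffers were also averaged together. Data originate from 3228 arrays in the Consortium for Functional Glycomics database, kept only where the protein sequence was available.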
# [2] = molecular target: Gal(b1-4)GlcNAc(b1-2)[Gal(b1-4)GlcNAc(b1-6)]Man(a1-6)[GlcNAc(b1-4)][Gal(b1-4)GlcNAc(b1-2)Man(a1-3)]Man(b1-4)GlcNAc(b1-4)GlcNAc
# Method in brief: as §1
# [3] = molecular target: Gal(b1-4)GlcNAc(b1-2)[Gal(b1-4)GlcNAc(b1-6)]Man(a1-6)[GlcNAc(b1-4)][Gal(b1-4)GlcNAc(b1-2)[Gal(b1-4)GlcNAc(b1-4)]Man(a1-3)]Man(b1-4)GlcNAc(b1-4)[Fuc(a1-6)]GlcNAc
# Method in brief: as §1
# [4] = molecular target: Gal(b1-4)GlcNAc(b1-3)Gal(b1-3)GalNAc
# Method in brief: as §1
# [5] = molecular target: Gal(b1-4)GlcNAc(b1-3)Gal(b1-3)GlcNAc
# Method in brief: as §1
# [6] = molecular target: Gal(b1-4)GlcNAc(b1-3)Gal(b1-4)Glc
# Method in brief: as §1
# [7] = molecular target: Gal(b1-4)GlcNAc(b1-3)Gal(b1-4)GlcNAc
# Method in brief: as §1
# [8] = molecular target: Gal(b1-4)GlcNAc(b1-3)Gal(b1-4)GlcNAc(b1-2)Man(a1-3)[Gal(b1-4)GlcNAc(b1-3)Gal(b1-4)GlcNAc(b1-2)Man(a1-6)]Man(b1-4)GlcNAc(b1-4)GlcNAc
# Method in brief: as §1
# [9] = molecular target: Gal(b1-4)GlcNAc(b1-3)Gal(b1-4)GlcNAc(b1-2)Man(a1-3)[Gal(b1-4)GlcNAc(b1-3)Gal(b1-4)GlcNAc(b1-2)Man(a1-6)]Man(b1-4)GlcNAc(b1-4)[Fuc(a1-6)]GlcNAc
# Method in brief: as §1
# [10] = molecular target: Gal(b1-4)GlcNAc(b1-3)Gal(b1-4)GlcNAc(b1-2)[Gal(b1-4)GlcNAc(b1-3)Gal(b1-4)GlcNAc(b1-6)]Man(a1-6)[Gal(b1-4)GlcNAc(b1-3)Gal(b1-4)GlcNAc(b1-2)Man(a1-3)]Man(b1-4)GlcNAc(b1-4)GlcNAc
# Method in brief: as §1
# [11] = molecular target: Gal(b1-4)GlcNAc(b1-3)Gal(b1-4)GlcNAc(b1-2)[Gal(b1-4)GlcNAc(b1-3)Gal(b1-4)GlcNAc(b1-6)]Man(a1-6)[Gal(b1-4)GlcNAc(b1-3)Gal(b1-4)GlcNAc(b1-2)Man(a1-3)]Man(b1-4)GlcNAc(b1-4)[Fuc(a1-6)]GlcNAc
# Method in brief: as §1
# [12] = molecular target: Gal(b1-4)GlcNAc(b1-3)Gal(b1-4)GlcNAc(b1-3)Gal(b1-4)GlcNAc
# Method in brief: as §1
# [13] = molecular target: Gal(b1-4)GlcNAc(b1-3)Gal(b1-4)GlcNAc(b1-3)Gal(b1-4)GlcNAc(b1-2)Man(a1-3)[Gal(b1-4)GlcNAc(b1-3)Gal(b1-4)GlcNAc(b1-3)Gal(b1-4)GlcNAc(b1-2)Man(a1-6)]Man(b1-4)GlcNAc(b1-4)GlcNAc
# Method in brief: as §1
# [14] = molecular target: Gal(b1-4)GlcNAc(b1-3)Gal(b1-4)GlcNAc(b1-3)Gal(b1-4)GlcNAc(b1-2)Man(a1-3)[Gal(b1-4)GlcNAc(b1-3)Gal(b1-4)GlcNAc(b1-3)Gal(b1-4)GlcNAc(b1-2)Man(a1-6)]Man(b1-4)GlcNAc(b1-4)[Fuc(a1-6)]GlcNAc
# Method in brief: as §1
# [15] = molecular target: Gal(b1-4)GlcNAc(b1-3)Gal(b1-4)GlcNAc(b1-3)Gal(b1-4)GlcNAc(b1-2)[Gal(b1-4)GlcNAc(b1-3)Gal(b1-4)GlcNAc(b1-3)Gal(b1-4)GlcNAc(b1-6)]Man(a1-6)[Gal(b1-4)GlcNAc(b1-3)Gal(b1-4)GlcNAc(b1-3)Gal(b1-4)GlcNAc(b1-2)Man(a1-3)]Man(b1-4)GlcNAc(b1-4)[Fuc(a1-6)]GlcNAc
# Method in brief: as §1
# [16] = molecular target: Gal(b1-4)GlcNAc(b1-3)Gal(b1-4)GlcNAc(b1-3)Gal(b1-4)GlcNAc(b1-3)Gal(b1-4)GlcNAc(b1-2)Man(a1-3)[Gal(b1-4)GlcNAc(b1-3)Gal(b1-4)GlcNAc(b1-3)Gal(b1-4)GlcNAc(b1-3)Gal(b1-4)GlcNAc(b1-2)Man(a1-6)]Man(b1-4)GlcNAc(b1-4)GlcNAc
# Method in brief: as §1
# [17] = molecular target: Gal(b1-4)GlcNAc(b1-3)Gal(b1-4)GlcNAc(b1-3)Gal(b1-4)GlcNAc(b1-3)Gal(b1-4)GlcNAc(b1-2)Man(a1-3)[Gal(b1-4)GlcNAc(b1-3)Gal(b1-4)GlcNAc(b1-3)Gal(b1-4)GlcNAc(b1-3)Gal(b1-4)GlcNAc(b1-2)Man(a1-6)]Man(b1-4)GlcNAc(b1-4)[Fuc(a1-6)]GlcNAc
# Method in brief: as §1
# [18] = molecular target: Gal(b1-4)GlcNAc(b1-3)Gal(b1-4)GlcNAc(b1-3)Gal(b1-4)GlcNAc(b1-3)Gal(b1-4)GlcNAc(b1-2)[Gal(b1-4)GlcNAc(b1-3)Gal(b1-4)GlcNAc(b1-3)Gal(b1-4)GlcNAc(b1-3)Gal(b1-4)GlcNAc(b1-6)]Man(a1-6)[Gal(b1-4)GlcNAc(b1-3)Gal(b1-4)GlcNAc(b1-3)Gal(b1-4)GlcNAc(b1-3)Gal(b1-4)GlcNAc(b1-2)Man(a1-3)]Man(b1-4)GlcNAc(b1-4)[Fuc(a1-6)]GlcNAc
# Method in brief: as §1
# [19] = molecular target: Gal(b1-4)GlcNAc(b1-3)Gal(b1-4)GlcNAc(b1-3)Gal(b1-4)GlcNAc(b1-3)Gal(b1-4)GlcNAc(b1-3)Gal(b1-4)GlcNAc(b1-2)Man(a1-3)[Gal(b1-4)GlcNAc(b1-3)Gal(b1-4)GlcNAc(b1-3)Gal(b1-4)GlcNAc(b1-3)Gal(b1-4)GlcNAc(b1-3)Gal(b1-4)GlcNAc(b1-2)Man(a1-6)]Man(b1-4)GlcNAc(b1-4)GlcNAc
# Method in brief: as §1
# [20] = molecular target: Gal(b1-4)GlcNAc(b1-3)Gal(b1-4)GlcNAc(b1-3)Gal(b1-4)GlcNAc(b1-3)Gal(b1-4)GlcNAc(b1-3)Gal(b1-4)GlcNAc(b1-2)Man(a1-3)[Gal(b1-4)GlcNAc(b1-3)Gal(b1-4)GlcNAc(b1-3)Gal(b1-4)GlcNAc(b1-3)Gal(b1-4)GlcNAc(b1-3)Gal(b1-4)GlcNAc(b1-2)Man(a1-6)]Man(b1-4)GlcNAc(b1-4)[Fuc(a1-6)]GlcNAc
# Method in brief: as §1
# [21] = molecular target: Gal(b1-4)GlcNAc(b1-3)Gal(b1-4)GlcNAc(b1-3)Gal(b1-4)GlcNAc(b1-3)Gal(b1-4)GlcNAc(b1-3)Gal(b1-4)GlcNAc(b1-2)[Gal(b1-4)GlcNAc(b1-3)Gal(b1-4)GlcNAc(b1-3)Gal(b1-4)GlcNAc(b1-3)Gal(b1-4)GlcNAc(b1-3)Gal(b1-4)GlcNAc(b1-6)]Man(a1-6)[Gal(b1-4)GlcNAc(b1-3)Gal(b1-4)GlcNAc(b1-3)Gal(b1-4)GlcNAc(b1-3)Gal(b1-4)GlcNAc(b1-3)Gal(b1-4)GlcNAc(b1-2)Man(a1-3)]Man(b1-4)GlcNAc(b1-4)[Fuc(a1-6)]GlcNAc
# Method in brief: as §1
# [22] = molecular target: Gal(b1-4)GlcNAc(b1-3)Gal(b1-4)GlcNAc(b1-3)Gal(b1-4)GlcNAc(b1-3)Gal(b1-4)GlcNAc(b1-3)Gal(b1-4)GlcNAc(b1-3)Gal(b1-4)GlcNAc(b1-2)Man(a1-3)[Gal(b1-4)GlcNAc(b1-3)Gal(b1-4)GlcNAc(b1-3)Gal(b1-4)GlcNAc(b1-3)Gal(b1-4)GlcNAc(b1-3)Gal(b1-4)GlcNAc(b1-3)Gal(b1-4)GlcNAc(b1-2)Man(a1-6)]Man(b1-4)GlcNAc(b1-4)GlcNAc
# Method in brief: as §1
# [23] = molecular target: Gal(b1-4)GlcNAc(b1-3)Gal(b1-4)GlcNAc(b1-3)GalNAc
# Method in brief: as §1
binder,measurement,setting,value
B1,glycan array binding signal (z-score),[1],-0.009
same,glycan array binding signal (z-score),[2],-0.133
same,glycan array binding signal (z-score),[3],0.289
same,glycan array binding signal (z-score),[4],-0.156
same,glycan array binding signal (z-score),[5],-0.154
same,glycan array binding signal (z-score),[6],-0.149
same,glycan array binding signal (z-score),[7],-0.11
same,glycan array binding signal (z-score),[8],0.44
same,glycan array binding signal (z-score),[9],1.07
same,glycan array binding signal (z-score),[10],-0.112
same,glycan array binding signal (z-score),[11],0.973
same,glycan array binding signal (z-score),[12],-0.026
same,glycan array binding signal (z-score),[13],2.62
same,glycan array binding signal (z-score),[14],5.46
same,glycan array binding signal (z-score),[15],4.41
same,glycan array binding signal (z-score),[16],5.39
same,glycan array binding signal (z-score),[17],8.72
same,glycan array binding signal (z-score),[18],6.24
same,glycan array binding signal (z-score),[19],10.6
same,glycan array binding signal (z-score),[20],9.73
same,glycan array binding signal (z-score),[21],7.26
same,glycan array binding signal (z-score),[22],5.94
same,glycan array binding signal (z-score),[23],-0.155
